Measurements taken from the supplement of paper PMC11417369.
± gives the standard deviation of the averaged measurements. Some of the results follow.

test system: PfAP2-LT AP2 domain (GST-tagged); assay: gcPBM binding intensity (ln(normalized median fluorescence intensity)); higher = stronger DNA binding
Outline: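 For binding intensity, the highest Masliner-normalised natural-log median intensity across replicate spots of either probe orientation was taken. Protein bound to the array was stained with Alexa488 anti-GST antibody and scanned at 488 nm. The protein, GST-tagged P. falciparum DNA-binding domains from E. coli at about 25 μg on average, had been applied for 1 h to an Agilent 4 × 180k array of primer-extended double-stranded 36-bp intergenic genomic probes and negative controls.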

Row | Sequence | gcPBM binding intensity (ln)
1 | AAATACCTGATATATACACACTATGTTTTTCTTTTT [CACACA_site6680] | 9.01 ± 0.52
2 | TATTAAATTATATAGACACACATTATATATATATAT [CACACA_site4345] | 8.99 ± 0.18
3 | ATAATTATATAAATATATATAATATATATATGAAAA [XGTACX_negctrl_site357] | 8.58 ± 0.58
4 | AAAATGGGTTAGCACATACACACCAATATATTATAT [CACACA_site3082] | 9.08 ± 0.42
5 | AAGAAAAACATTACGTGTACCAAAAGGCCTGTCAAC [XGTACX_site267] | 9.13 ± 0.39
6 | GTAACAAATAAAATAACACACATGTCGAAATGTATG [CACACA_site2971] | 9.3 ± 0.48
7 | CACATACATATATACACACACAAAATAATAAAATAA [CACACA_site2308] | 9.54 ± 0.33
8 | AAAATTATATTTTATAGAAATTTAAATAAATATATA [GTGCAC_negctrl_site199] | 8.14 ± 0.49
9 | TTTTTAAAAATAACAGAAAAGAATTACAGATTTTTT [XGTACX_negctrl_site472] | 8.22 ± 0.48
10 | TTTTCTTGATTTTGTAGTACATTTTTACGATATTTT [XGTACX_site63] | 8.84 ± 0.5
11 | ATGTAAATTATTATTCTATTGTTATATACACAATAT [XGTACX_negctrl_site332] | 8.9 ± 0.27
12 | ATATAGTTCGTTTATACACACATGATAAGATATTTA [CACACA_site1947] | 8.93 ± 0.36
13 | AAATCACTTTTTAAGTGTACTTGGTCTTTCTCATTT [XGTACX_site7221] | 8.76 ± 0.53
14 | TTTTTTACATCCATAAAACTTTTTCTCTTTTAAAAT [CACACA_negctrl_site1745] | 8.23 ± 0.36
15 | AGAGAGAAAGGTATAACATGCGATAAATTTTAGAAG [TGCATGCA_site37] | 8.88 ± 0.59
16 | TGTATTAATATGGTAATACACACTAATATACTTTTG [CACACA_site1610] | 8.81 ± 0.42
17 | AACATAATAAAAATGGATATAATTCAAAGTTTGTAA [TGCATGCA_negctrl_site529] | 8.61 ± 0.55
18 | TGTTATTCGACATATACACACAAATAACAATTTAAA [CACACA_site5076] | 8.88 ± 0.36
19 | AAAAAATTGAAGGAGTGTACATTTATACTTTATTTT [XGTACX_site8623] | 8.71 ± 0.39
20 | TGTAGAATTTCCTGAACATGCAAATAATTTTCCTTA [TGCATGCA_site881] | 8.33 ± 0.45
21 | AGGTCTGTTTTATATTGTACATAAAAAGTGCACATG [XGTACX_site4529] | 8.82 ± 0.45
22 | TAATTATAAATTATAGTGCATAAAATTGTAGCATAA | 8.64 ± 0.51

Row | Sequence | gcPBM binding intensity (ln)
23 | GACATTTGTGAGCTTGAGCCGTCAAACCACTAAATA [CACACA_negctrl_site552] | 8.73 ± 0.38
24 | AAAATATGATATGAAAAATTTGTTATATATACATAA [CACACA_negctrl_site1529] | 8.51 ± 0.47
25 | CATATTCCAAGAATGTGTACATAATTTTTTTTTTTT [XGTACX_site4310] | 8.62 ± 0.3
26 | CTCATAATTTCTGAACGTACGTATTTCTCATTTTTA [XGTACX_site7296] | 8.76 ± 0.45
27 | ATTTTTTTTTAATGCAAAAGGTGATGATCGGTCATA [CACACA_negctrl_site959] | 8.34 ± 0.45
28 | TTCTATAAGTATAAATGTACAAAAAAAACATCATTC [XGTACX_site5450] | 8.74 ± 0.45
29 | ATTATCCATGCATTTACACACACACTAATAAAAATT [CACACA_site9358] | 9.5 ± 0.33
30 | TTTAACATAAATTAAACACACAATAAAATACATTAA [CACACA_site6699] | 8.78 ± 0.43
31 | CATAAATACAGATATACACACATATATATATATATA [CACACA_site4528] | 9.7 ± 0.45
32 | GAGGTACATTAATTAGTGCATTAAAATTTTTATCCT | 8.62 ± 0.42
33 | ATAATACATATAGAAGGTACACTATTATTTTCCTGA [XGTACX_site903] | 8.74 ± 0.43
34 | TGGAAACAAAAACACACACACAAAAAAAAAAAAAAA [CACACA_site3209] | 9.21 ± 0.61
35 | TGTATTATTAATATTTGTACGTAATAATAAAAACAT [XGTACX_site3716] | 8.72 ± 0.48
36 | TCCTTAGAAATATTGATCATAAACTGGAAAGGTATA [XGTACX_negctrl_site354] | 8.33 ± 0.38
37 | GAAATATATAAATTGACACACACATATATACATATA [CACACA_site8323] | 9.38 ± 0.33
38 | TAATTTCTTATGTATTGTACAAATAATATATTATTT [XGTACX_site3066] | 8.78 ± 0.49
39 | ATTCAAAATAATCACAGTACACATGAGATTATCTTT [XGTACX_site2197] | 8.73 ± 0.45
40 | TTAATATGGAAATGTTGTACATTTCTTGAAGCATTC [XGTACX_site525] | 8.47 ± 0.32
41 | ACTTCATAAACATTTTGTACGTATGTATCTTTTTAT [XGTACX_site7012] | 9.18 ± 0.52
42 | TTATTGAAAAACATAATATCTAAGAGGGTAATATAT [GTGCAC_negctrl_site599] | 8.54 ± 0.4
43 | TATATATATATGTACACACACACATATAAATAAATA [CACACA_site443] | 9.66 ± 0.24
44 | TAAAAGGGGATATATGAACACACAAAAAAAAAATAT [CACACA_site8940] | 9.04 ± 0.64
